Source: the supplement of paper PMC8728848
The other results are listed elsewhere or left out.

Tests used:
Experiment in all cases: glycan array binding signal (z-score within array); higher = stronger binding
Conditions in all cases: glycan notation: IUPAC condensed, linker removed
[1] = target: GlcNAc(b1-3)Gal(b1-4)GlcNAc(b1-3)Gal(b1-4)GlcNAc(b1-2)Man(a1-3)[GlcNAc(b1-3)Gal(b1-4)GlcNAc(b1-3)Gal(b1-4)GlcNAc(b1-2)Man(a1-6)]Man(b1-4)GlcNAc(b1-4)[Fuc(a1-6)]GlcNAc
Outline: (§1)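 The binding signal is a Z-score computed within each array and averaged over linkers. Arrays of the same protein sequence at different concentrations or buffers were also averaged together. Data originate from 3228 arrays in the Consortium for Functional Glycomics database, kept only where the protein sequence was available.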

[2] = target: GlcNAc(b1-3)Gal(b1-4)GlcNAc(b1-3)Gal(b1-4)GlcNAc(b1-2)[GlcNAc(b1-3)Gal(b1-4)GlcNAc(b1-3)Gal(b1-4)GlcNAc(b1-6)]Man(a1-6)[GlcNAc(b1-3)Gal(b1-4)GlcNAc(b1-3)Gal(b1-4)GlcNAc(b1-2)Man(a1-3)]Man(b1-4)GlcNAc(b1-4)[Fuc(a1-6)]GlcNAc
Outline: as §1

[3] = target: GlcNAc(b1-3)Gal(b1-4)GlcNAc(b1-3)Gal(b1-4)GlcNAc(b1-3)Gal(b1-4)GlcNAc(b1-2)Man(a1-3)[GlcNAc(b1-3)Gal(b1-4)GlcNAc(b1-3)Gal(b1-4)GlcNAc(b1-3)Gal(b1-4)GlcNAc(b1-2)Man(a1-6)]Man(b1-4)GlcNAc(b1-4)GlcNAc
Outline: as §1

[4] = target: GlcNAc(b1-3)Gal(b1-4)GlcNAc(b1-3)Gal(b1-4)GlcNAc(b1-3)Gal(b1-4)GlcNAc(b1-2)Man(a1-3)[GlcNAc(b1-3)Gal(b1-4)GlcNAc(b1-3)Gal(b1-4)GlcNAc(b1-3)Gal(b1-4)GlcNAc(b1-2)Man(a1-6)]Man(b1-4)GlcNAc(b1-4)[Fuc(a1-6)]GlcNAc
Outline: as §1

[5] = target: GlcNAc(b1-3)Gal(b1-4)GlcNAc(b1-3)Gal(b1-4)GlcNAc(b1-3)Gal(b1-4)GlcNAc(b1-2)[GlcNAc(b1-3)Gal(b1-4)GlcNAc(b1-3)Gal(b1-4)GlcNAc(b1-3)Gal(b1-4)GlcNAc(b1-6)]Man(a1-6)[GlcNAc(b1-3)Gal(b1-4)GlcNAc(b1-3)Gal(b1-4)GlcNAc(b1-3)Gal(b1-4)GlcNAc(b1-2)Man(a1-3)]Man(b1-4)GlcNAc(b1-4)[Fuc(a1-6)]GlcNAc
Outline: as §1

[6] = target: GlcNAc(b1-3)Gal(b1-4)GlcNAc(b1-3)Gal(b1-4)GlcNAc(b1-3)Gal(b1-4)GlcNAc(b1-3)Gal(b1-4)GlcNAc(b1-2)Man(a1-3)[GlcNAc(b1-3)Gal(b1-4)GlcNAc(b1-3)Gal(b1-4)GlcNAc(b1-3)Gal(b1-4)GlcNAc(b1-3)Gal(b1-4)GlcNAc(b1-2)Man(a1-6)]Man(b1-4)GlcNAc(b1-4)GlcNAc
Outline: as §1

[7] = target: GlcNAc(b1-3)Gal(b1-4)GlcNAc(b1-3)Gal(b1-4)GlcNAc(b1-3)Gal(b1-4)GlcNAc(b1-3)Gal(b1-4)GlcNAc(b1-2)Man(a1-3)[GlcNAc(b1-3)Gal(b1-4)GlcNAc(b1-3)Gal(b1-4)GlcNAc(b1-3)Gal(b1-4)GlcNAc(b1-3)Gal(b1-4)GlcNAc(b1-2)Man(a1-6)]Man(b1-4)GlcNAc(b1-4)[Fuc(a1-6)]GlcNAc
Outline: as §1

[8] = target: GlcNAc(b1-3)Gal(b1-4)GlcNAc(b1-3)Gal(b1-4)GlcNAc(b1-3)Gal(b1-4)GlcNAc(b1-3)Gal(b1-4)GlcNAc(b1-2)[GlcNAc(b1-3)Gal(b1-4)GlcNAc(b1-3)Gal(b1-4)GlcNAc(b1-3)Gal(b1-4)GlcNAc(b1-3)Gal(b1-4)GlcNAc(b1-6)]Man(a1-6)[GlcNAc(b1-3)Gal(b1-4)GlcNAc(b1-3)Gal(b1-4)GlcNAc(b1-3)Gal(b1-4)GlcNAc(b1-3)Gal(b1-4)GlcNAc(b1-2)Man(a1-3)]Man(b1-4)GlcNAc(b1-4)[Fuc(a1-6)]GlcNAc
Outline: as §1

[9] = target: GlcNAc(b1-3)Gal(b1-4)GlcNAc(b1-3)Gal(b1-4)GlcNAc(b1-3)GalNAc
Outline: as §1

[10] = target: GlcNAc(b1-3)Gal(b1-4)GlcNAc(b1-3)GalNAc
Outline: as §1

[11] = target: GlcNAc(b1-3)Gal(b1-4)GlcNAc(b1-3)[GlcNAc(b1-3)Gal(b1-4)GlcNAc(b1-3)]GalNAc
Outline: as §1

[12] = target: GlcNAc(b1-3)Gal(b1-4)GlcNAc(b1-6)[Gal(b1-3)]GalNAc
Outline: as §1

[13] = target: GlcNAc(b1-3)Gal(b1-4)GlcNAc(b1-6)[GlcNAc(b1-3)Gal(b1-3)]GalNAc
Outline: as §1

[14] = target: GlcNAc(b1-3)Gal(b1-4)GlcNAc(b1-6)[GlcNAc(b1-3)]Gal(b1-4)GlcNAc
Outline: as §1

GlcNAc(b1-3)GalNAc = target: GlcNAc(b1-3)GalNAc
Outline: as §1

GlcNAc(b1-3)Man = target: GlcNAc(b1-3)Man
Outline: as §1

[15] = target: GlcNAc(b1-3)[GlcNAc(b1-4)][GlcNAc(b1-6)]GlcNAc
Outline: as §1

[16] = target: GlcNAc(b1-3)[GlcNAc(b1-6)]Gal(b1-4)GlcNAc
Outline: as §1

[17] = target: GlcNAc(b1-3)[GlcNAc(b1-6)]GalNAc
Outline: as §1

[18] = target: GlcNAc(b1-3)[GlcNAc(b1-6)]GlcNAc(b1-4)GlcNAc
Outline: as §1

[19] = target: GlcNAc(b1-4)Gal(b1-4)GlcNAc
Outline: as §1

GlcNAc(b1-4)GlcNAc = target: GlcNAc(b1-4)GlcNAc
Outline: as §1

[20] = target: GlcNAc(b1-4)GlcNAc(b1-4)GlcNAc
Outline: as §1

[21] = target: GlcNAc(b1-4)GlcNAc(b1-4)GlcNAc(b1-4)GlcNAc(b1-4)GlcNAc
Outline: as §1

[22] = target: GlcNAc(b1-4)GlcNAc(b1-4)GlcNAc(b1-4)GlcNAc(b1-4)GlcNAc(b1-4)GlcNAc
Outline: as §1

[23] = target: GlcNAc(b1-4)[GlcNAc(b1-6)]GalNAc
Outline: as §1

[24] = target: GlcNAc(b1-6)Gal(b1-4)GlcNAc
Outline: as §1

GlcNAc(b1-6)GalNAc = target: GlcNAc(b1-6)GalNAc
Outline: as §1

[25] = target: GlcNAc6S(b1-3)Gal(b1-4)GlcNAc
Outline: as §1

Kdn(a2-3)Gal(b1-3)GalNAc = target: Kdn(a2-3)Gal(b1-3)GalNAc
Outline: as §1

Kdn(a2-3)Gal(b1-3)GlcNAc = target: Kdn(a2-3)Gal(b1-3)GlcNAc
Outline: as §1

Kdn(a2-3)Gal(b1-4)Glc = target: Kdn(a2-3)Gal(b1-4)Glc
Outline: as §1

Kdn(a2-3)Gal(b1-4)GlcNAc = target: Kdn(a2-3)Gal(b1-4)GlcNAc
Outline: as §1

[26] = target: Kdn(a2-3)Gal(b1-4)[Fuc(a1-3)]GlcNAc
Outline: as §1

Kdn(a2-6)Gal(b1-4)GlcNAc = target: Kdn(a2-6)Gal(b1-4)GlcNAc
Outline: as §1

[27] = target: Man(a1-2)Man(a1-2)Man(a1-3)Man
Outline: as §1

[28] = target: Man(a1-2)Man(a1-2)Man(a1-6)[Man(a1-3)]Man
Outline: as §1

Man(a1-2)Man(a1-3)Man = target: Man(a1-2)Man(a1-3)Man
Outline: as §1

[29] = target: Man(a1-2)Man(a1-3)[Man(a1-2)Man(a1-6)]Man
Outline: as §1

[30] = target: Man(a1-2)Man(a1-3)[Man(a1-2)Man(a1-6)]Man(a1-6)[Man(a1-2)Man(a1-2)Man(a1-3)]Man
Outline: as §1

[31] = target: Man(a1-2)Man(a1-3)[Man(a1-2)Man(a1-6)]Man(a1-6)[Man(a1-2)Man(a1-2)Man(a1-3)]Man(b1-4)GlcNAc(b1-4)GlcNAc
Outline: as §1

[32] = target: Man(a1-2)Man(a1-3)[Man(a1-6)]Man(a1-6)[Man(a1-2)Man(a1-3)]Man(b1-4)GlcNAc(b1-4)GlcNAc
Outline: as §1

[33] = target: Man(a1-2)Man(a1-6)[Man(a1-3)]Man(a1-6)[Man(a1-2)Man(a1-2)Man(a1-3)]Man
Outline: as §1

[34] = target: Man(a1-2)Man(a1-6)[Man(a1-3)]Man(a1-6)[Man(a1-2)Man(a1-2)Man(a1-3)]Man(b1-4)GlcNAc(b1-4)GlcNAc
Outline: as §1

Man(a1-3)[Man(a1-6)]Man = target: Man(a1-3)[Man(a1-6)]Man
Outline: as §1

B1: DBA (Dolichos biflorus) (protein)
chain: ANIQSFSFKNFNSPSFILQGDATVSSGKLQLTKVKENGFPLRFPSGRAFYSSPIQIYDKFTGAVASWATSFTVKISAPSKASFADGIAFALVPVGSEPRRNGGYLGVFDSDVYNNSAQTVAVEFDTLSNSGWDPSMKHIGIDVNSIKSIATVSWDLANGENAEILITYNAATSLLVVSLVHPSRRTSYILSERVDITNELPEYVGVGFSATTGLSEGYIETHDVLSWSFASRLPDDSTAEPLDLARYLVRNVL
- glycan array binding signal (z-score) [1]: 0.043
- glycan array binding signal (z-score) [2]: -0.147
- glycan array binding signal (z-score) [3]: -0.069
- glycan array binding signal (z-score) [4]: 0.011
- glycan array binding signal (z-score) [5]: -0.094
- glycan array binding signal (z-score) [6]: 0.01
- glycan array binding signal (z-score) [7]: 0.003
- glycan array binding signal (z-score) [8]: -0.1
- glycan array binding signal (z-score) [9]: -0.074
- glycan array binding signal (z-score) [10]: -0.139
- glycan array binding signal (z-score) [11]: -0.114
- glycan array binding signal (z-score) [12]: -0.126
- glycan array binding signal (z-score) [13]: -0.106
- glycan array binding signal (z-score) [14]: -0.147
- glycan array binding signal (z-score) (GlcNAc(b1-3)GalNAc): -0.101
- glycan array binding signal (z-score) (GlcNAc(b1-3)Man): -0.13
- glycan array binding signal (z-score) [15]: -0.099
- glycan array binding signal (z-score) [16]: -0.174
- glycan array binding signal (z-score) [17]: -0.113
- glycan array binding signal (z-score) [18]: -0.184
- glycan array binding signal (z-score) [19]: -0.16
- glycan array binding signal (z-score) (GlcNAc(b1-4)GlcNAc): -0.116
- glycan array binding signal (z-score) [20]: -0.118
- glycan array binding signal (z-score) [21]: -0.14
- glycan array binding signal (z-score) [22]: -0.099
- glycan array binding signal (z-score) [23]: -0.174
- glycan array binding signal (z-score) [24]: -0.13
- glycan array binding signal (z-score) (GlcNAc(b1-6)GalNAc): -0.128
- glycan array binding signal (z-score) [25]: -0.123
- glycan array binding signal (z-score) (Kdn(a2-3)Gal(b1-3)GalNAc): -0.073
- glycan array binding signal (z-score) (Kdn(a2-3)Gal(b1-3)GlcNAc): -0.169
- glycan array binding signal (z-score) (Kdn(a2-3)Gal(b1-4)Glc): -0.079
- glycan array binding signal (z-score) (Kdn(a2-3)Gal(b1-4)GlcNAc): -0.095
- glycan array binding signal (z-score) [26]: -0.004
- glycan array binding signal (z-score) (Kdn(a2-6)Gal(b1-4)GlcNAc): -0.088
- glycan array binding signal (z-score) [27]: -0.13
- glycan array binding signal (z-score) [28]: -0.081
- glycan array binding signal (z-score) (Man(a1-2)Man(a1-3)Man): -0.126
- glycan array binding signal (z-score) [29]: -0.141
- glycan array binding signal (z-score) [30]: -0.152
- glycan array binding signal (z-score) [31]: -0.098
- glycan array binding signal (z-score) [32]: -0.157
- glycan array binding signal (z-score) [33]: -0.062
- glycan array binding signal (z-score) [34]: -0.124
- glycan array binding signal (z-score) (Man(a1-3)[Man(a1-6)]Man): -0.123
